From paper PMC12136788 come the findings set out here.

T1: UNK ZnF1-3 (human, UniProt Q9C0B0 31-174)
T1 sequence: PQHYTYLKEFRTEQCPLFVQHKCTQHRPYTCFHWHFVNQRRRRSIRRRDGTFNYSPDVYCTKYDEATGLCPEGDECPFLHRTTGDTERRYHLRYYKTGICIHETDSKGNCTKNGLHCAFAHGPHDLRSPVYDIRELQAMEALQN

B1: 42271696_42271921_939_3pUTR_ENSG00000087152_ENST00000454077|human|control|control (ssRNA)
RNA: GGGAGUUCUACAGUCCGACGAUCGGAACCUAGGCCGGAGGCAGUCCCUACCAGGCUCAGAUGGGAUUUCUUUUUCUUGGUUUUCCGUGACUCAGAGCUGUUGGUACCUAGACCCCAUCCCUGAUUUUCACUCGUCUUGGAGGACAACAGAGGAUUGAGCAUCA
B2: chr3:96579679:96579680:+_ENSMUSG00000028098_ENSMUST00000029740|mus_mus|motif|central (ssRNA)
RNA: GGGAGUUCUACAGUCCGACGAUCAGGCCGACUUGGUCCCCAAAAGUCAGUGUGAGUUUGGUGACCUCUCUCAUUGGCUCGGUUAUCUUGGUCCAGUGGAUUGCUACUUAGAAAUGGUCUAAAAUCUUGUAAAAACAUUGUGUGCAACAGAGGAUUGAGCAUCA
B3: chr3:95061978:95061979:-_ENSMUSG00000015711_ENSMUST00000015855|mus_mus|FALSE|FALSE (ssRNA)
RNA: GGGAGUUCUACAGUCCGACGAUCUCGUUCCAGGAUGCCACAGAUUGUCAUUCGAAGUGCCUCGUGUGGACAGAAGAUAGCUAAUUGCCGUACUGGCUCAUUUUGAGUGUUGAAAAAGAUAGUCAUGGCAACCAGGGCAUCAUACAACAGAGGAUUGAGCAUCA
B4: 47228842_47230765_1301_CDS_ENSG00000090372_ENST00000263280|human|control|control (ssRNA)
RNA: GGGAGUUCUACAGUCCGACGAUCGUGCGAGCGCAGGGUGAACUUGGGGUUCCACGUCUUCUUAAAAGCAUCUUUGCUGUCAGACAGAUCGCAGCUGAGGUCGUUGUCGUUGGUGACGGUGAGAUCUGCCAAGUCCCCCAGGCUCAACAGAGGAUUGAGCAUCA
B5: chr10:76910771:76910772:+_ENSG00000156671_ENST00000542569|perfect_dup|FALSE|FALSE (ssRNA)
RNA: GGGAGUUCUACAGUCCGACGAUCCAUGUCAGGCACUCGCUCAUGGACUAUAACCAUAAUGAAAGAUGUAAAUCCAAAUACUAUAAAAACAUAUAUACAACUCAGUAUAGUCUUCCAGUAUUCUGGGUCCAAUCUUCGAACAGACAACAGAGGAUUGAGCAUCA
B6: chr1:153634984:153634985:-_ENSG00000143621_ENST00000361891|hu_mus|FALSE|FALSE (ssRNA)
RNA: GGGAGUUCUACAGUCCGACGAUCUUCCUCCCCCUCCUUCUUCUCAGGUGGCUUCUCAUAAGCCUUUUCUGAGGGUGUCACAAUCACUCCAUCCCAGGUAGAUAUUUCAGAAGCAAGAUAGCUGGCAUCCCCCUCCUGGCCAAGCAACAGAGGAUUGAGCAUCA

This is one part of the list.

In this test the target is T1, UNK ZnF1-3. The test is described as follows: nsRBNS (natural sequence RNA bind-n-seq); RBNS binding buffer (assumed for nsRBNS): 25 mM Tris pH 7.5, 150 mM KCl, 3 mM MgCl2, 0.01% Triton X-100, 500 ug/ml BSA, 20 U/ml SUPERase-In, 4 C; UNK is unkempt and MSI1 is Musashi-1; names of the RNAs are library labels; protein concentration not given here; high values mean tight binding.
Consider B1, for which the binding signal stood at 0.678 enrichment R.

For the molecule B2, the binding signal stood at 1.09 enrichment R.

Regarding B3, the binding signal amounted to 1.03 enrichment R.

Take B4: the binding signal was 0.951 enrichment R.

Consider B5, for which the binding signal came to 1.21 enrichment R.

Molecule B6 registered a binding signal of 1.17 enrichment R.
